{"source": "PubChem BioAssay AID488969", "about": "(Vanderbilt High Throughput Screening Facility, 2010)", "note": "In all, about 110,000 compounds were measured (“z-score”: median about -0.1, highest 2% from about 2 on). This is one part of the list. Calls of active or inactive are those of the source.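 Rule for the calls: active = z-score in the third read window above 3 or below -3; inactive = the rest.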", "data": [{"molecular_target": "Metabotropic glutamate receptor 8 (Rattus norvegicus) (UniProt P70579)", "sequence (P70579 whole entry, looked up)": "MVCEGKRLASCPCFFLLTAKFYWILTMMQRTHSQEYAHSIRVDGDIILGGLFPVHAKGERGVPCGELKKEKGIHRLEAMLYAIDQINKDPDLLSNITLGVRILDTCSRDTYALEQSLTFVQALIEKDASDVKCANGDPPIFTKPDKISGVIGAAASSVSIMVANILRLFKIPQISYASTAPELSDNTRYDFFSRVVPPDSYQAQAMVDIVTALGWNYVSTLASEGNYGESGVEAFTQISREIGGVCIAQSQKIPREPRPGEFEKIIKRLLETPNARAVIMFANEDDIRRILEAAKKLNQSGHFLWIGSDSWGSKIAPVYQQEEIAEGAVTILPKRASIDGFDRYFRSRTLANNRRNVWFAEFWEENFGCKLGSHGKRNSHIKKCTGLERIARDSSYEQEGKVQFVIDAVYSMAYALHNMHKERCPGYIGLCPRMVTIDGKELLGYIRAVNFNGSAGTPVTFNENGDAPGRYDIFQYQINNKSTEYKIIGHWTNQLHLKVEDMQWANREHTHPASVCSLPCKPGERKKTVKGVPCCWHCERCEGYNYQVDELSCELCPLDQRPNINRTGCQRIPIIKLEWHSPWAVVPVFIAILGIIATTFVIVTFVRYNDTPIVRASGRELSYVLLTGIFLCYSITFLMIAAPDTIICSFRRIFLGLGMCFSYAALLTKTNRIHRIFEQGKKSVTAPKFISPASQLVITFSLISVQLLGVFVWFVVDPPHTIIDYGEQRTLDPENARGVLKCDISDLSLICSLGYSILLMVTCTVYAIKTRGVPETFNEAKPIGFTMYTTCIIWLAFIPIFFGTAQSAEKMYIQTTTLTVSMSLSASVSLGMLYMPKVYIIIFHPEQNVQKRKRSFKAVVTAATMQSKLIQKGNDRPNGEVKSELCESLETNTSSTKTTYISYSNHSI", "experiment": "mGluR8 Gi/Go-coupled signaling modulation – cell-based, rat, thallium flux, HTS, primary screen (AID 488969)", "conditions": "HEK293 rat mGluR8, GIRK (G protein-gated inwardly rectifying potassium channel) thallium flux, FluoZin2; at 10 µM; stronger effect = higher value; submaximal glutamate (EC20) added with thallium", "values": [{"smiles": "N#CCSc1ncnc2c1cnn2CCO", "z-score": 0.841}, {"smiles": "CCC(C)c1ccc(NC(=O)C/C(C)=N/NC(=O)c2cnccn2)cc1", "note": "(centres undefined)", "z-score": -0.178}, {"smiles": "COc1ccccc1N1CCN(C(=O)c2ccccc2Oc2ccccc2)CC1", "z-score": -0.0128}, {"smiles": "CCCCC(=O)NN(C)c1nc(-c2ccccc2)nnc1C(F)(F)F", "z-score": -0.236}, {"smiles": "COc1ccc(-c2cc(C(F)(F)F)n3nc(C(=O)NCCCn4ccnc4)cc3n2)cc1", "z-score": -0.476}, {"smiles": "COc1c(C)cccc1C(=O)Nc1ccc(N2CCOCC2)c(Cl)c1", "z-score": -0.326}, {"smiles": "CN(C)c1ccc(C2CC(c3ccccc3)=Nc3nc(-c4ccccc4)cn32)cc1", "note": "(centres undefined)", "z-score": -0.176}, {"smiles": "O=C(Cc1cc(=O)[nH][nH]1)N/N=C/c1c(Cl)cccc1Cl", "z-score": -0.452}, {"smiles": "CCCc1nnc(NC(=O)c2cccc(OC)c2)s1", "z-score": -0.102}, {"smiles": "Cc1ccc(C)c(NC(=O)C(=O)NCc2ccccn2)c1", "z-score": -0.0364}, {"smiles": "CC1(C)OC2OC(COC(=O)c3ccc([N+](=O)[O-])cc3)C3OC(C)(C)OC3C2O1", "note": "(centres undefined)", "z-score": -0.286}, {"smiles": "Cc1cc(C(=O)Nc2ccccc2N2CCOCC2)ccc1[N+](=O)[O-]", "z-score": -0.321}, {"smiles": "COC(=O)c1cc2c(ccn2-c2ccc(F)cc2)n1Cc1ccc(OC(C)=O)cc1", "z-score": 1.2}, {"smiles": "CCOC(=O)/C(=C\\c1ccc([N+](=O)[O-])cc1)C(=O)c1cc(C(C)=O)c(Nc2ccccc2)s1", "z-score": -0.156}, {"smiles": "CCC(C)Oc1nc(C)cc(C)c1S(=O)(=O)c1ccccc1C", "note": "(centres undefined)", "z-score": -0.0966}, {"smiles": "CCOc1ccccc1N(CC(=O)NC1CCCCC1)C(=O)CCCC(=O)Nc1ccccn1", "z-score": -0.541}, {"smiles": "Cc1ccc(OC(=O)C(C)c2cccc(C(=O)c3ccccc3)c2)cc1", "note": "(centres undefined)", "z-score": -0.0213}, {"smiles": "O=C(CSc1nnc2scc(-c3ccc(F)cc3)n12)NCc1ccco1", "z-score": -0.14}, {"smiles": "CC(Sc1nc(-c2ccccc2)cc(C(F)(F)F)n1)C(=O)Nc1sc2c(c1C#N)CCC2", "note": "(centres undefined)", "z-score": -0.136}, {"smiles": "COc1ccc(-n2nc(C(=O)NCC(=O)NCc3ccco3)c3ccccc3c2=O)c(OC)c1", "z-score": 0.212}, {"smiles": "Cc1ccc(NS(=O)(=O)c2ccc(C(=O)N3CCN(c4ccccn4)CC3)cc2)cc1", "z-score": -0.241}, {"smiles": "CC1(C)C(=O)NCCN1C(=O)CCC(=O)O", "z-score": 0.302}, {"smiles": "Cc1ccc(-c2noc(CSc3nnc(Cc4ccccc4)n3-c3cccc(C)c3)n2)cc1", "z-score": -0.182}, {"smiles": "O=C(CNC(=O)c1ccco1)Nc1cc(Cl)ccc1N1CCOCC1", "z-score": 0.243}, {"smiles": "COC(=O)CCc1sc(Nc2ccccc2)nc1-c1ccc(OC)cc1", "z-score": -0.13}, {"smiles": "CCOc1ccc(-c2c(C(=O)N/N=C/c3ccc(OC(C)C)cc3)nnn2-c2nonc2N)cc1", "z-score": -0.219}, {"smiles": "CCCN(CCC)CCCNC(=O)c1cc2c(=O)n(C)c3ccccc3c2n1C", "z-score": "active: 4"}, {"smiles": "CC(=O)Nc1ccc(/C(C)=N/NC(=O)CN(c2ccccc2Br)S(C)(=O)=O)cc1", "z-score": 0.622}, {"smiles": "O=C(Oc1cc(=O)n2ccccc2n1)c1ccccc1", "z-score": -2.09}, {"smiles": "CC(=O)Nc1cc(C(=O)c2ccccc2)ccc1N1CCOCC1", "z-score": 0.189}, {"smiles": "Cc1cccc(C(=O)NC(=S)Nc2ccccc2C(F)(F)F)c1", "z-score": "active: 3.38"}, {"smiles": "O=C(Nc1ncc2c(n1)CC(c1ccco1)CC2=O)c1ccc(Cl)cc1", "note": "(centres undefined)", "z-score": -0.777}, {"smiles": "COc1cc(NC(=O)c2cc(-c3cccnc3)nc3ccc(C)cc23)c(OC)cc1Cl", "z-score": -1.58}, {"smiles": "CCOC(=O)c1sc(NC(=O)c2cccs2)cc1C", "z-score": -0.119}, {"smiles": "O=C(c1ccco1)N1CCN(C(c2ccc(Cl)cc2)c2nnnn2CC2CCCO2)CC1", "note": "(centres undefined)", "z-score": 1.13}, {"smiles": "CCN1CCN(C(C(=O)NC2CCCC2)c2ccc(Cl)cc2)CC1", "note": "(centres undefined)", "z-score": 0.0777}, {"smiles": "CCOC(=O)Cc1c(C)c2ccc(N(CC)CC)cc2oc1=O", "z-score": -1.32}, {"smiles": "COc1cc(/C=N/n2c(SC)nnc(C(C)(C)C)c2=O)ccc1O", "z-score": -0.497}, {"smiles": "O=C(Nc1ccccc1)N(Cc1cccs1)C1CCCC1", "z-score": -0.492}, {"smiles": "CCOCCCNC(=S)N1C2CCC1CC(NC(=O)NC1CCCCC1)C2", "note": "(centres undefined)", "z-score": -0.286}, {"smiles": "COc1ccc(Cc2nc3ccc(S(=O)(=O)N4CCOCC4)cc3[nH]2)cc1", "z-score": -0.193}, {"smiles": "CCOC(=O)N1CCN(C(=O)Nc2ccc3nccnc3c2)CC1", "z-score": 0.657}, {"smiles": "O=C(Oc1ccc2cc(Br)ccc2c1)c1cccnc1", "z-score": -0.445}, {"smiles": "CCC(C)c1ccccc1NC(=O)COC(=O)c1ccc(N2CCCC2)c([N+](=O)[O-])c1", "note": "(centres undefined)", "z-score": -0.0795}, {"smiles": "Cc1nc(SCc2ccc(O)c([N+](=O)[O-])c2)n[nH]1", "z-score": -0.228}, {"smiles": "CC(SCc1ccccc1)C(=O)N/N=C/c1cc2c(cc1Br)OCO2", "note": "(centres undefined)", "z-score": -0.397}, {"smiles": "CCC1S/C(=C(\\C#N)C(N)=O)N(c2ccc(F)cc2)C1=O", "note": "(centres undefined)", "z-score": 0.084}, {"smiles": "Cc1nc(-c2ccccc2)sc1-c1nc(-c2ccccc2)ncc1S(=O)(=O)c1ccccc1", "z-score": -0.0308}, {"smiles": "O=S(=O)(c1ccc2c(c1)OCCO2)N(Cc1ccc(F)cc1)Cc1nnc(-c2cccs2)o1", "z-score": -0.203}, {"smiles": "CN=C1S/C(=C\\c2cc(C)n(-c3ccccc3F)c2C)C(=O)N1C", "z-score": 1.87}, {"smiles": "CCCc1nn2c(=O)c(C(c3ccc(C)cc3)c3c(O)nc4sc(CCC)nn4c3=O)c(O)nc2s1", "z-score": -0.14}, {"smiles": "Cc1cccc(NC(=O)CSc2nnc(-c3ccco3)o2)c1", "z-score": -0.435}, {"smiles": "CCCCOc1ccccc1C1NC(=O)NC(C)=C1C(=O)OCCOC", "note": "(centres undefined)", "z-score": -0.347}, {"smiles": "CN(CC(=O)NC1CCCCC1)S(=O)(=O)c1cccc2nsnc12", "z-score": -0.48}, {"smiles": "CCCCNC(=O)Cn1cnc2sc(C(=O)OCC)c(C)c2c1=O", "z-score": -0.518}, {"smiles": "Cc1onc(-c2ccccc2)c1C(=O)N1CCN(C/C=C/c2ccccc2)CC1", "z-score": -0.328}, {"smiles": "CSc1ncccc1-c1nc2ccccc2[nH]1", "z-score": -0.0907}, {"smiles": "COc1cc(NC(=O)c2ccc(Br)o2)c(C(=O)O)cc1OC", "z-score": -0.481}, {"smiles": "CCOC(=O)CCSc1nc(C)c2cc(OC)ccc2n1", "z-score": -0.0662}, {"smiles": "Cc1cccc(C)c1NC(=O)CNC(=O)CCC(=O)c1cccs1", "z-score": -0.232}, {"smiles": "O=C(CC1NC2CCCCC2NC1=O)Nc1cccc(C(F)(F)F)c1", "note": "(centres undefined)", "z-score": 0.497}, {"smiles": "Cc1c(C(=O)OC(C)C)[nH]c2c1C(=O)CC(C)(C)C2", "z-score": -0.214}, {"smiles": "Cc1cc(C)cc(NC(=O)C(=O)NCc2ccccn2)c1", "z-score": -0.179}, {"smiles": "OC(COc1c(Cl)cc(Cl)cc1Cl)CN1CCCCC1", "note": "(centres undefined)", "z-score": -0.0959}, {"smiles": "O=C(CN1CCN(Cc2ccccc2F)C1=O)NCCN1CCOCC1", "z-score": 0.267}, {"smiles": "CCOC(=O)COc1ccc(S(=O)(=O)Nc2ccc(C)cc2)cc1", "z-score": -0.352}, {"smiles": "Cc1nnc(SCC(=O)Nc2cccc(C(F)(F)F)c2)[nH]c1=O", "z-score": -0.424}, {"smiles": "Cc1cc(C)cc(Oc2nn[nH]n2)c1", "z-score": -0.155}, {"smiles": "CCC(C)NC(=O)C1CCCN1S(=O)(=O)c1ccc(Cl)cc1", "note": "(centres undefined)", "z-score": -0.369}]}]}
